Measurements reported in PubChem BioAssay AID504339 (National Center for Advancing Translational Sciences (NCATS), 2011).
Screen size: about 390,000 compounds; about 17,000 (4.4%) were called active. Inconclusive means that the source gave no clear call. Such entries were picked first, then a sample of the others. Calls come from the whole dose curve; as a rule, active = well fitted inhibition curve with a large enough effect; inconclusive = small, poorly fitted or top-dose-only effect; inactive = no such curve, though single readings can be large or run the other way. Where the call is inconclusive, the potency comes from a doubtful curve fit.

Biological target: Lysine-specific demethylase 4A (Homo sapiens) (UniProt O75164)
Experiment: qHTS Assay for Inhibitors of JMJD2A-Tudor Domain; note: nearly all actives have a fitted effect of over 50% in size
Conditions: AlphaScreen JMJD2A-Tudor / H3K4me3 peptide binding; activity change, negative = inhibition: at 114 µM (top of the series)
% is set by controls: 0 for no effect and ±100 for the full control effect; potency is the fitted concentration of half-maximal effect; tags give direction and shape of the fitted curve.

Chain of UniProt O75164 (O75164 whole entry, looked up, the tested form may be a part): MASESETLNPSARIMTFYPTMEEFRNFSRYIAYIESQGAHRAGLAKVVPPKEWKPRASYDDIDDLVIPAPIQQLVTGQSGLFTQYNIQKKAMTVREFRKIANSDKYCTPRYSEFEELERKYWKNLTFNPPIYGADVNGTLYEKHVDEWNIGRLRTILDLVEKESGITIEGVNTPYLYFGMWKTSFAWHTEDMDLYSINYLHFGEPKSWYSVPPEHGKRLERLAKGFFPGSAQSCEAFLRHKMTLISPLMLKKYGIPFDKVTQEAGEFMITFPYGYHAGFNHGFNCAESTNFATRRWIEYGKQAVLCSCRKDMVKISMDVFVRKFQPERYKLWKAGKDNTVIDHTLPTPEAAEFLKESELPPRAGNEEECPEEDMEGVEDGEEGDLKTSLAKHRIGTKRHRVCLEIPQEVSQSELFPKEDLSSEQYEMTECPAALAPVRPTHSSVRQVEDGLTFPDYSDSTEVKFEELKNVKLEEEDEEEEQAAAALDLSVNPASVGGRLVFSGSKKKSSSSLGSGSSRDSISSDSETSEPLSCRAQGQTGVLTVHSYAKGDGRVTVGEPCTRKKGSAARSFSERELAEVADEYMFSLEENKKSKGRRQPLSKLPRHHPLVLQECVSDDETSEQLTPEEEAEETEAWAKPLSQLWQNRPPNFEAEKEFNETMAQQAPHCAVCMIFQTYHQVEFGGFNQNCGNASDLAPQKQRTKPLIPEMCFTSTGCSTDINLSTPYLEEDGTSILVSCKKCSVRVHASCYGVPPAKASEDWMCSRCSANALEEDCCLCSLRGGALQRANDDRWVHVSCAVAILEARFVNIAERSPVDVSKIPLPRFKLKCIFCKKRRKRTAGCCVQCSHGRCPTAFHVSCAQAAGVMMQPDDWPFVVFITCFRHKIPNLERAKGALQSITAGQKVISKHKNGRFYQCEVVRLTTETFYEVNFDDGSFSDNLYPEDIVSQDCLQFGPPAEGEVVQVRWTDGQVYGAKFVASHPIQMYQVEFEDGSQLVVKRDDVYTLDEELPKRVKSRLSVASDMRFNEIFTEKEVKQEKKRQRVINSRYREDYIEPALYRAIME

Potency, active:
Cc1cccn2c(Nc3ccccc3)c(-c3ccccn3)nc12 12.6 µM
CCOc1cc(CNc2ccc3c(c2)OCCO3)cc(Br)c1OC 39.8 µM
O=C1CC(=O)N(Cc2ccco2)C(=S)N1 56.2 µM
COc1ccc(-n2nc(C(=O)NCC(=O)Nc3ccccn3)c3ccccc3c2=O)cc1Cl 31.6 µM
CCN1CCN(CC(=O)N2N=C(c3ccc(OC)cc3)CC2c2ccc(OC)cc2)C(=O)C1=O (centres undefined) 79.4 µM
Cc1ccc(SC2=C(Sc3ccc(C)cc3)C(=O)c3ccccc3C2=O)cc1 3.55 µM
CCCCC(=O)NC(c1ccc(N(C)C)cc1)c1ccc2cccnc2c1O (centres undefined) 17.8 µM
c1ccc2cc(OCCCn3ccnc3)ccc2c1 3.98 µM
COC(=O)c1nc(NC2=NCCCCC2)n[nH]1 79.4 µM
OC1(c2ccccc2Cl)NN=C2CCCCCN21 (centres undefined) 5.62 µM
CC1CCN(S(=O)(=O)c2cccc(-c3nnc(-c4cccnc4)o3)c2)CC1 28.2 µM
CCOc1cc(C2C(C(=O)OC)=C(C)NC3=C2C(=O)c2ccccc23)cc(Br)c1OCC (centres undefined) 12.6 µM
O=C(NCc1ccccn1)C(=O)N/N=C/c1ccccc1O 25.1 µM

Potency, inconclusive:
Cc1csc2nc(-c3cccc(NC(=O)c4c(F)cccc4F)c3)cn12 79.4 µM [inhibitor, partial curve]
COc1cccc(N2CCN(C(=O)c3cc(-c4ccccc4)nc4c3cnn4C(C)C)CC2)c1 56.2 µM [inhibitor, partial curve]
CCOC(=O)C1=C(N)n2c(s/c(=C\c3ccco3)c2=O)=C(C(=O)OC(C)C)C1c1ccco1 (centres undefined) 44.7 µM [inhibitor, partial curve]
Cc1ccc(NCC(=O)c2ccc([N+](=O)[O-])cc2)cc1 17.8 µM [inhibitor, full curve]
COc1cccc(Oc2cn[nH]c2-c2ccc(OCC(=O)NN)cc2O)c1 56.2 µM [inhibitor, partial curve]
CCn1c(CSCc2ccc(C)cc2)nnc1SCC(=O)N1CCN(c2ccccc2)CC1 56.2 µM [inhibitor, partial curve]
COc1ccc2c(c1)nc(SCC(=O)C(C)(C)C)n2C 89.1 µM [inhibitor, single point]
Cc1ccc(-c2noc(CCC(=O)NCC3CCN(Cc4cccc(C)c4)CC3)n2)cc1 89.1 µM [inhibitor, single point]
Nc1nc(C23CC4CC(CC(C4)C2)C3)cs1 79.4 µM [inhibitor, partial curve]
COc1ccc(NC(=O)/C(N=Nc2cccc(S(=O)(=O)Nc3ccc(SC(F)F)cc3)c2)=C(\C)O)cc1 11.2 µM [inhibitor, partial curve]
COc1ccc(OC)c(NC(=O)COC(=O)CCNc2ccccc2OC)c1 50.1 µM [inhibitor, partial curve]
O=C(CCc1ccccc1)N1CCc2c([nH]c3ccccc23)C1c1ccc(F)cc1 (centres undefined) 15.8 µM [inhibitor, full curve]
CCC(C)n1c(SCC(=O)NC(=O)c2cccn2C)nc2ccccc2c1=O (centres undefined) 56.2 µM [inhibitor, partial curve]
CCc1cc2cccc(C)c2nc1SCC(=O)N1CCN(C(=O)c2ccco2)CC1 50.1 µM [inhibitor, partial curve]
Cc1cc(C)c(/C=C2\C(=O)Nc3ccccc32)[nH]1 8.91 µM [inhibitor, partial curve]
Nc1ccccc1Sc1ccc(C(=O)c2ccccc2C(=O)O)cc1[N+](=O)[O-] 70.8 µM [inhibitor, partial curve, poor fit]
O=[N+]([O-])c1cncc([N+](=O)[O-])c1Nc1ccccc1Cl 56.2 µM [inhibitor, partial curve]
FC(F)(F)c1ccc(/C=N/n2c(C3CCCCC3)n[nH]c2=S)cc1 50.1 µM [inhibitor, partial curve]
CC1(C)SC(=S)N(NC(=O)Nc2ccccc2)C1N(O)C(=O)Nc1cccc2ccccc12 (centres undefined) 25.1 µM [inhibitor, full curve]
Cc1ccc2nc(-c3c[nH]c4ccccc34)c(Nc3ccc(F)cc3)n2c1 28.2 µM [inhibitor, full curve]
Cc1cccc(C(=O)Nc2ccc(C(=O)/C=C/c3cccnc3)cc2)c1 70.8 µM [inhibitor, single point]
Cc1cccc(OCC(O)CN2CCN(C3CCCCC3)CC2)c1 (centres undefined) 70.8 µM [inhibitor, single point]
CC(=O)Nc1ccc(N2C(=O)c3cccc4c(O)ccc(c34)C2=O)cc1 79.4 µM [inhibitor, single point]
CCN(CC)CC(=O)Nc1sc2c(c1C(=O)c1ccccc1OC)CCC2 31.6 µM [inhibitor, full curve, poor fit]
Cc1cc(C)n(CC(=O)Nc2ccccc2)n1 39.8 µM [inhibitor, single point]
Cc1ccc(C2NC(=O)c3c(sc4c3CCN(C)C4)N2)s1 (centres undefined) 50.1 µM [inhibitor, partial curve]
Fc1ccc(C2CC(c3ccco3)=Nc3ccccc3S2)cc1 (centres undefined) 50.1 µM [inhibitor, partial curve]
Cc1nc(-c2ccccc2O)n(S(=O)(=O)N(C)C)n1 89.1 µM [inhibitor, single point]
O=C(C1=C[C@@H](C2CCCCC2)C[C@@H](OCCCCO)O1)N1CCN(Cc2ccc3c(c2)OCO3)CC1 56.2 µM [inhibitor, partial curve, poor fit]
Cc1nc2cc(NCc3ccc(Cl)cc3)ccc2n1C 56.2 µM [inhibitor, partial curve]
CN(C)c1ccc(CNn2cnnc2SCc2ccc(F)cc2)cc1 50.1 µM [inhibitor, partial curve]
COc1cccc(N2CCN(C(=O)CC(NC(=O)c3ccccc3)c3ccccc3)CC2)c1 (centres undefined) 35.5 µM [inhibitor, partial curve]
CCCCOC(=O)c1ccc(N/C(=N\S(=O)(=O)c2ccccc2)c2ccccc2)cc1 79.4 µM [inhibitor, single point]
Cc1ccc(O)c(-c2n[nH]c3c2C(c2ccccc2F)N(Cc2ccco2)C3=O)c1 (centres undefined) 25.1 µM [inhibitor, full curve]
CCn1nc([N+](=O)[O-])c2c(-c3nc4ccccc4o3)c(N)n(CCCOC)c2c1=O 44.7 µM [inhibitor, partial curve]
COc1cc(C(=O)NC2CCN(C)CC2)ccc1Nc1ncc2c(n1)N(Cc1ccccc1)CCC(=O)N2C 56.2 µM [inhibitor, partial curve, poor fit]
O=S(=O)(NCC(c1ccco1)N1CCN(c2ccccc2)CC1)c1ccc(F)cc1 (centres undefined) 89.1 µM [inhibitor, partial curve]

Activity change, negative = inhibition, inactive:
O=C(CSc1nnc(-c2ccc(Cl)cc2)n1Cc1ccco1)Nc1ccc2c(c1)OCCO2 -32.8%
Cc1ccc(C(O)(COC(=O)C(C)C)COC(=O)C(C)C)c(O)c1 -13.6%
CCn1cc([N+](=O)[O-])c(C(=O)N2N=C(c3ccc(O)c(OC)c3)CC2c2ccccc2O)n1 (centres undefined) -27.9%
O=C(N/N=C1/CC2C=CCC12)c1cccs1 (centres undefined) 4.55%
CS(=O)(=O)n1nc(-c2ccc(Cl)cc2)nc1N -12%
CCN(CC(=O)Nc1c(F)cccc1F)C(=O)CNC(=O)c1cccc(C)c1 -11.3%
C[C@@H](C(=O)Nc1ccc2ccccc2c1)[C@H]1C[C@]1(C)[C@H](N)c1ccccc1 -11%
Nc1cccc(-c2csc(-n3ncc(C(=O)O)c3C(F)(F)F)n2)c1 -16.1%
CCN(c1ccc(OC)cc1)S(=O)(=O)c1csc(C(=O)N2CCCC2)c1 -19.9%
O=C(Nc1ccc(F)cc1)Nc1csc2ccccc12 -9.61%
O=C(CC(c1cccs1)N1Cc2ccccc2C1=O)Nc1cccc(F)c1 (centres undefined) -12.4%
Cc1ccc(S(=O)(=O)NCCC(=O)NNC(=O)COc2ccc(Br)cc2)cc1C -10.7%
O=C(CSc1nc(-c2ccccc2)cs1)NCCCN1CCCC1=O -5.74%
O=C(Cn1cnc2ccccc2c1=O)Nc1ccc2c(c1)OCO2 1.66%
C=CCn1c(SCc2ccccc2)nnc1-c1cccnc1 -5.77%
Cc1cccc(N2CC(C(=O)Nc3nnc(SCc4ccccn4)s3)CC2=O)c1 (centres undefined) -35.4%
COCCCNC(=O)C(Cc1ccccc1)NS(=O)(=O)c1ccc2c(c1)c(=O)n(C)c(=O)n2C (centres undefined) -18.1%
CC(=O)NC(=S)Nc1ccc(NC(=O)COc2ccc(Cl)cc2Cl)cc1 -16.7%
O=C1c2cccc([N+](=O)[O-])c2C(=O)N1CCO 6.19%
CCc1nc(SCC(=O)c2ccc3c(c2)OCCO3)c2ccccc2n1 -0%
CC(=O)Nc1ccccc1C(F)(F)F 15.2%
O=[N+]([O-])c1ccc(-c2nc(Nc3ccc(O)cc3)c3ccccc3n2)cc1 -11.6%
O=C1CN(C(=O)/C=C/c2ccco2)c2ccccc2N1 -10.8% [at 57.1 µM]
O=C(Cn1c(=O)nc(-c2ccccc2)c2cc(Cl)ccc21)NCCc1ccccc1 0.331%
